Read counts are not given, so values of variants with three or more changes are uncertain.
B1: LINE1-mini (parent)
chain: GGCAGAGCUCAACACAGCGUGGCAAAGUGGCUGUGGCUAGACUGCC

Variants of: B1
Experiment: self-cleavage, relative activity (ratio to wild type); higher = more cleavage; in vitro, sequencing; the parent is a self-cleaving ribozyme

Variant | self-cleavage
G2U C18G C23A | 0.01
G2U G35A C37U | 0.1
G2U U9G G22C | 0.05
G2U C18U G21U U34G | 0.02
C3A A4C G19A C23U G27C G30C G33U | 0.03
G2U U20G A24U A25U C31A | 0.05
G2U U32C C46U | 0.03
G2U C10G G33U G36C A39U | 0
G2U C13A A14C | 0.04
G2U C45U C46A | 0.06
G2U G36U G40A | 0.02
G2U G19C C23A | 0.22
G2U G17A U43A | 0.07
C3A A4C A6C G7C G22A C42A | 0.05
G2U G35U G36A A39U | 0.03
G2U C23A G33C G40A | 0.01
G2U U20A G22A | 0.06
G2U G17U C23G G29A C31A | 0.07
G2U G19C A26U | 0.17
G2U G19C C45A | 0.1
G2U C31U U34A | 0.04
G2U C23U A41C U43G | 0
G2U C37U C42A | 0.03
G2U C3U U9C G35C | 0.05

Variant | self-cleavage
G2U G19A G36A A41C U43C | 0.01
G2U G36A G40A | 0.04
G2U G7C U9C C31A | 0.01
G2U C18A G33A | 0.01
G2U C8G G27A G29A G30C | 0.01
G2U C15U A16G A26G G36A | 0.02
C3A A4U C23U | 0.4
G2U C23A C46A | 0.08
G2U G21U C42A | 0.01
G2U G5A G30U | 0.1
G2U C15A A16C G27U G29U C31A | 0.02
G2U C18U G30A A41G C42U | 0.08
G2U C10G A26G C37A A39G G44U | 0.01
G2U U9G C31A | 0.37
G2U C10G G21C A39C | 0
G2U C23G A24C | 0.08
G2U C10A U28C | 0.02
G2U C8A A16U C31A C42A | 0.03
G2U G29U U34A U38A | 0.03
G2U C37G G44A | 0.06
G2U C8G U9G U43C C45U | 0.01
G2U G29U C31U U43A G44C | 0.01
G2U G7A A26U U28A G36A | 0.05
G2U C8U G19C A24C C42G | 0.01

Variant | self-cleavage
G2U G5U A16G C18G G29A C42G | 0.03
C3A A4G G27C C42U | 0.09
G2U C10G A11G G35A | 0.03
G2U C18A U38A A41G C46U | 0
G2U G5C C8U G17C C23A C31G | 0
G2U C8A G17C C18A | 0.03
G2U G21U A25G U34G | 0.03
G2U C8G G44A | 0.02
G2U C18U C23G G35C | 0.04
G2U C10A G27A C37A | 0
G2U G5U A12G G17U U28A C31U G36C | 0.01
G2U U9C G22U A26C | 0.02
G2U C3U G22U | 0.15
G2U G19A G27U | 0.24
G2U U9A G33C G35C | 0.02
G2U G5U C18A G22A U38C | 0.01
G2U U9C G33A G40A | 0.02
G2U C8U A41C | 0.02
G2U C15A U32G | 0.03
G2U G5C C10U | 0.01
G2U G30A G33C G36U | 0.02
G2U C8A G44U | 0.05
C3A A4C C8U A16C C18U C31G | 0.46
G2U U20C A24G U34A G40A | 0.13

Variant | self-cleavage
G2U C13G G17U G27A G29U G40A | 0.06
G2U U20A G36A | 0.01
G2U C23U C31A G40U | 0.01
G2U G5C G27A U34A | 0.04
G2U G21A C23A G40A | 0.02
G2U C13U G17C G29C A39G | 0.02
G2U G30U C42A | 0.05
G2U G19A U20C G21U G27C | 0.03
G2U G7C C8U G17U C37A | 0.26
G2U G7C G17C | 0.12
G2U C18U U32C U34C | 0.02
C3A A4C G27A G30A | 0.13
G2U C8G A25C G29U | 0
G2U U9G G30C U34A | 0.01
G2U G5A C23G G27A G33C | 0.03
G2U C15G U20C | 0.01
G2U U34C A41G | 0.03
G2U C31G C42U | 0.04
G2U G21C A39G | 0.04
G2U G21A A26U | 0.21
G2U G5U C15U G22A U32C G36A | 0.01
G2U U32G A39C U43C | 0
G2U G17C G21C G36U U38G | 0.01
G2U C13G C18A G21A U28A | 0.01

Variant | self-cleavage
G2U G5U A25C U28C | 0
G2U G5U A24U | 0.01
C3A A4C A11G G17A C23A U38C | 0.03
G2U U20C G27A | 0.01
G2U C15A C37A | 0.08
G2U G35C C42U | 0.01
G2U G29U U32A | 0.05
G2U C13G A25U G30A | 0.04
G2U U20C C37A | 0.06
G2U C8U C13A G19A C31A A39C | 0.02
G2U G29A A39C | 0
G2U G22C A25U U32C | 0.17
G2U C13A C15U A26C C31G | 0
G2U G19A C31A | 0.02
G2U G35U C42U C45U | 0.05
C3A A4C A39U | 0.19
C3A A4C A39C | 0.04
G2U U28A G30A | 0.33
G2U C18A U20A | 0.05
G2U C23A G36U | 0.01
G2U C10U A26C C31U U32A | 0.02
G2U C37A A39C | 0.04
G2U U9C A11C | 0.01
G2U G35U G44C | 0.05

Variant | self-cleavage
G2U U9A U32G G40A | 0.02
G2U U9C C42U | 0.06
C3A A4C C8A A24U A26U G30U C46G | 0.69
G2U G33C C42A | 0.02
G2U G5A C10A | 0.02
C3A A4U A41U C45G | 0.45
G2U C8G C10A A25C C46A | 0
C3A A4C A12C A14G U38A | 0.03
G2U C8U A12G G22A C23A A39U | 0.07
G2U U9C C15A G21U G40U | 0.04
G2U G5U G21C C23A G35A C46A | 0.01
G2U G22C G29C G30C A39C C46G | 0.03
G2U C8U C31G | 0.28
G2U G17A C37U C46U | 0.03
G2U G21U G35A G40U | 0.03
G2U G29U A39U | 0.06
G2U U9G G17A C42U | 0.07
G2U U28C G30U C31A U34G A39C | 0
G2U C8G C10U A12C A25C C37G U38G | 0
G2U C8U A16C A39U | 0.04
G2U G17U A24U G35U C45U | 0.01
G2U C8A U38C | 0.04
G2U G19U G22U G30U C46A | 0.19
G2U G35U A41G | 0.02

Variant | self-cleavage
G2U C15A A16G C18U | 0.05
G2U C13A G17U A26C G27U | 0.08
G2U G5C G36A | 0.04
G2U G7C U9G G33U G36C A41U C45G | 0
C3A A4G A26G C45A | 0.35
G2U C23U U32A U43A | 0.21
G2U G5A C18U | 0.02
G2U C8G G27C C46U | 0.05
G2U C10G A26C C31A | 0.01
G2U C31G G33U C37A C42A | 0.02
G2U U9A A11G | 0.01
G2U G5A U28G | 0.04
G2U C18U G29A G33A U38A | 0.18
G2U C8A A11C A24U G29C | 0
G2U C8A U34A | 0.11
G2U C8G C18U G21A C42G | 0
G2U G5U U9G C13A A26C G30C U38A C46A | 0.01
G2U C15A U20A G40U | 0.01
G2U G5A A16C | 0.01
G2U C8U A26U | 0.03
G2U G5A U38C G44U | 0.06
G2U G40U C45U | 0.01
G2U C8G C31G | 0.03
